Laboratory results reported in PubChem BioAssay AID485364 (National Center for Advancing Translational Sciences (NCATS), 2010).
Several values for one entry are separate records, joined by “and”; a condition that tells them apart may be missing. Equal values may be shown once. In all, about 360,000 compounds went through this assay and about 11,000 (3.1%) were called active. This list was built around the results that the source calls inconclusive (neither active nor inactive); the mix of calls is not that of the screen. The call rests on the fitted dose curve; in most records, active means well fitted inhibition curve with a large enough effect; inconclusive means small, poorly fitted or top-dose-only effect; inactive means no such curve, though single readings can be large or run the other way. Potencies of inconclusive entries are left out as doubtful fits.

target: Schistosoma mansoni thioredoxin glutathione reductase (TGR) (UniProt Q962Y6); assay: qHTS Assay for the Inhibitors of Schistosoma Mansoni Peroxiredoxins; conditions: purified TGR, DTNB reduction, TNB absorbance 405 nm; series mostly up to 114 µM; further: nearly all actives have a fitted effect of over 60% in size
Procedure, shortened: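 TGR 20 nM + NADPH 100 uM (dispensed conc.), cpd preinc 15 min RT; start with NADPH (500 uM addition) then DTNB (15 mM addition). Kinetic TNB absorbance, 405 nm filter. Four-parameter Hill fit across titration.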
Potency means the concentration at half of the fitted maximal effect; tags describe the fitted curve by direction and shape.

Q: For `CCc1ccc(CNCc2c(C(=O)O)n(Cc3ccc(C)cc3)c3cc(C)ccc23)cc1`, which Potency is on record?
A: inactive

Q: Which Potency does the source give for `CCc1c(C(=O)NNC(=S)NC2CCCCC2)csc1C` here?
A: inactive

Q: How did the Potency turn out when `COC(=O)C1=C(c2ccc3ccccc3c2)C[C@@H]2CC[C@H]1N2C(=O)NCC1CC1` was run?
A: inconclusive [inhibitor, partial curve]

Q: For `CCOC(=O)N1CCC(NC(=O)C2CCN(C(=O)c3cc4oc(C)cc4n3Cc3c(F)cccc3Cl)CC2)CC1`, which Potency is on record?
A: inconclusive [inhibitor, partial curve]

Q: How did the Potency turn out when `Cc1nc(CCNC(=O)CC2C(=O)NCCN2Cc2ccoc2)nc2c1CCCC2` (centres undefined) was run?
A: active: 28.2 µM

Q: With `Cc1ccc(S(=O)(=O)NCC(=O)N(CC(=O)NCc2ccco2)Cc2ccco2)cc1` as the compound, how does the Potency read?
A: inconclusive [inhibitor, single point]

Q: How did the Potency turn out when `C=CCC1(CC=C)CCCN1C(=O)CC1C(=O)NCCN1Cc1cccc(OC)c1OC` (centres undefined) was run?
A: inconclusive [inhibitor, full curve, poor fit]

Q: How did the Potency turn out when `Cc1cc2c(=O)n(Cc3ccco3)c(SCC(=O)c3ccc(Cl)s3)nc2s1` was run?
A: inconclusive [inhibitor, partial curve]

Q: For `O=C(OCC(=O)N1CCC(c2ccccc2)=N1)c1ccc([N+](=O)[O-])s1`, which Potency is on record?
A: inconclusive [inhibitor, full curve, poor fit]

Q: With `CC(=O)Nc1ccc(/C(C)=N/NC(=O)c2ccc(F)cc2)cc1` as the compound, how does the Potency read?
A: inactive

Q: How did the Potency turn out when `Cc1c(C=C2C(=O)N(C)C(=S)N(C)C2=O)c2ccccc2n1CC(=O)NCC1CCCO1` (centres undefined) was run?
A: inconclusive [inhibitor, full curve]

Q: With `COc1ccc(C(=O)n2nc(-c3ccco3)nc2SC)cc1OC` as the compound, how does the Potency read?
A: active: 10 µM

Q: With `CCc1ccc(-c2cc(C(=O)NCc3ccco3)c3ccccc3n2)s1` as the compound, how does the Potency read?
A: inconclusive [inhibitor, full curve, poor fit]

Q: How did the Potency turn out when `CS(=O)(=O)Nc1ccccc1C(=O)NCc1ccco1` was run?
A: inconclusive [inhibitor, partial curve]

Q: `COc1ccc(C(c2c(O)cc(C)oc2=O)c2c(O)cc(C)oc2=O)cc1` was tested. Which Potency did it give?
A: inconclusive [inhibitor, full curve]

Q: `O=C(c1ccco1)N1CCN(c2c([N+](=O)[O-])nn(-c3cccc(Cl)c3)[n+]2[O-])CC1` was tested. Which Potency did it give?
A: inactive

Q: `CCOC(=O)c1c(NC(=O)CSc2nnc(-c3ccncc3)n2Cc2ccco2)sc(C)c1C` was tested. Which Potency did it give?
A: inconclusive [inhibitor, partial curve]

Q: For `O=C(CCc1nnc2ccc(NCc3ccco3)nn12)Nc1ccccc1F`, which Potency is on record?
A: inconclusive [inhibitor, partial curve]

Q: With `CC(C)N1C(=O)C(O)(c2c[nH]c3ccccc23)c2ccccc21` (centres undefined) as the compound, how does the Potency read?
A: inactive

Q: For `Cc1ccc2cc(C#N)c(N3CCCC3)nc2c1C`, which Potency is on record?
A: active: 20 µM

Q: For `O=C(CN1CCN(c2ccccc2)CC1)Nc1ccc(F)cc1`, which Potency is on record?
A: inconclusive [inhibitor, single point]

Q: How did the Potency turn out when `COc1ccc(C2CC(=O)N3CN(c4ccccc4F)CSC3=C2C#N)cc1OC` (centres undefined) was run?
A: inconclusive [inhibitor, single point]

Q: `COc1ccc(C2SCC(=O)Nc3c2c(=O)[nH]n3C2CCCCCC2)cc1` (centres undefined) was tested. Which Potency did it give?
A: active: 39.8 µM

Q: How did the Potency turn out when `O=[N+]([O-])c1cccc(S(=O)(=O)c2ccc(NCCOCCO)c([N+](=O)[O-])c2)c1` was run?
A: inconclusive [inhibitor, full curve]

Q: How did the Potency turn out when `O=c1[nH][nH]c(-c2ccccc2)c1C=Nc1ccc(C(F)(F)F)cc1` was run?
A: inconclusive [inhibitor, single point]

Q: `O=C(NCCS(=O)(=O)NC1CCCC1)c1ccccc1` was tested. Which Potency did it give?
A: inactive

Q: Which Potency does the source give for `CCC(C(=O)Nc1nc(C)c(C)s1)c1ccccc1` (centres undefined) here?
A: inconclusive [inhibitor, partial curve]

Q: `Clc1cccc(CNc2cc(-c3ccccc3)nc3nncn23)c1` was tested. Which Potency did it give?
A: inactive

Q: How did the Potency turn out when `COc1ccccc1NS(=O)(=O)c1ccc(C)c(C(N)=O)c1` was run?
A: inactive

Q: How did the Potency turn out when `COc1ccc(C2C(C(=O)N3CCN(c4ccccc4)CC3)c3ccccc3C(=O)N2C)cc1` (centres undefined) was run?
A: inconclusive [inhibitor, partial curve]

Q: How did the Potency turn out when `CCCNC(=O)Cn1sc2nc(C)cc(C)c2c1=O` was run?
A: inconclusive [inhibitor, partial curve]

Q: `Cc1cnc(C(=O)OCC(=O)N2CCc3ccccc32)cn1` was tested. Which Potency did it give?
A: inconclusive [inhibitor, partial curve]

Q: Which Potency does the source give for `COc1ccc(OC)c(-c2csc(NC(=O)c3ccc(OCC4CCCO4)cc3)n2)c1` (centres undefined) here?
A: inactive

Q: How did the Potency turn out when `COc1ccccc1CCC(=O)Nc1ncc(C)s1` was run?
A: inactive

Q: For `CCS(=O)(=O)n1nc(-c2ccco2)nc1SC`, which Potency is on record?
A: inconclusive [inhibitor, partial curve]

Q: With `COC(=O)c1ccc(OC(=O)/C=C/c2ccco2)cc1` as the compound, how does the Potency read?
A: inactive

Q: How did the Potency turn out when `COc1ccc(OC)c(CC(=O)N(C)C2CCCN(Cc3ccccc3F)C2)c1` (centres undefined) was run?
A: inconclusive [inhibitor, partial curve]

Q: For `CCOC(=O)c1ccccc1NC(=O)CSc1nc(=O)[nH]c2c1CCC2`, which Potency is on record?
A: inactive

Q: How did the Potency turn out when `Cc1c(/C=N/NC(=O)c2sc3ccccc3c2Cl)cnn1C` was run?
A: inactive

Q: Which Potency does the source give for `O=C(CC(C(=O)O)c1ccc(Cl)cc1)c1ccc(Cl)c(Cl)c1` (centres undefined) here?
A: inconclusive [inhibitor, partial curve]

Q: With `CC1CCCCN1CCNc1nc(=S)[nH]c2ccccc12` (centres undefined) as the compound, how does the Potency read?
A: inconclusive [inhibitor, full curve, poor fit]

Q: `CCS(=O)(=O)C1=NN2C(=N)/C(=C\c3ccc(OS(=O)(=O)c4ccccc4)cc3)C(=O)N=C2S1` was tested. Which Potency did it give?
A: active: 44.7 µM

Q: `O=C1C=C(O)c2cccc(O)c2C1=O` was tested. Which Potency did it give?
A: inconclusive [inhibitor, partial curve]

Q: `CC(=O)c1cccc(OCc2cc(C(=O)N(C)C(C)c3ccccn3)no2)c1` (centres undefined) was tested. Which Potency did it give?
A: inconclusive [inhibitor, partial curve, poor fit]

Q: `CC(=O)Nc1ccccc1-c1ccc(C)o1` was tested. Which Potency did it give?
A: inconclusive [inhibitor, single point]

Q: `COc1ccc(CCNC(=O)CCS(=O)(=O)c2cccc3nsnc23)cc1OC` was tested. Which Potency did it give?
A: inconclusive [inhibitor, partial curve]

Q: For `Cc1nc2ccccc2n2c(O)c(CC(=O)O)cc12`, which Potency is on record?
A: active: 35.5 µM

Q: `CS(=O)(=O)N1N=C(c2ccco2)CC1c1ccccc1` (centres undefined) was tested. Which Potency did it give?
A: inconclusive [inhibitor, partial curve]

Q: How did the Potency turn out when `CC(C)(C)N1C(=O)Cc2c1nc(N)c1c(N)nc(N3CCCCC3CO)c(C#N)c21` (centres undefined) was run?
A: inconclusive [inhibitor, partial curve]

Q: With `O=C(NCCNC(=O)c1ccccc1O)c1ccccc1O` as the compound, how does the Potency read?
A: inactive

Q: For `CCCOc1ccc(N2CC(C(=O)Nc3ccccc3C(=O)NC)CC2=O)cc1` (centres undefined), which Potency is on record?
A: inconclusive [inhibitor, partial curve, poor fit]

Q: `CC(NC(=O)CN1C(=O)NC2(CCCCCC2)C1=O)c1ccccc1Cl` (centres undefined) was tested. Which Potency did it give?
A: inactive

Q: With `Cc1ccc(/C=C/C(=O)Nc2ccc([N+](=O)[O-])c(NC(=O)/C=C/c3ccc(C)o3)c2)o1` as the compound, how does the Potency read?
A: active: 22.4 µM

Q: With `Oc1ccc(NCc2ccccc2OCc2ccccc2F)cc1` as the compound, how does the Potency read?
A: active: 17.8 µM and active: 20 µM

Q: `CC(/C=N/NC(=O)c1cc(-c2ccc(C)s2)[nH]n1)=C\c1ccccc1` was tested. Which Potency did it give?
A: inactive

Q: For `CCOC(=O)c1c(C)[nH]c(C)c1C(=O)COC(=O)c1ccc([N+](=O)[O-])s1`, which Potency is on record?
A: inconclusive [inhibitor, partial curve]

Q: Which Potency does the source give for `FC(F)(F)c1ccc(CN2C[C@@H]3C(c4ccc(Cl)nc4)C4(c5cccnc5)CC3(C4)[C@H]2c2ccccc2)cc1` (some centres undefined) here?
A: inconclusive [inhibitor, partial curve]

Q: With `CCSc1ccc([C@@H]2[C@H]3C(=O)N(C)C(=O)[C@H]3[C@]3(C(=O)OC)CCCCN23)cc1` as the compound, how does the Potency read?
A: inconclusive [inhibitor, full curve]

Q: For `COc1ccc(CN(CCC#N)CCC2(c3ccccc3)CC(C)N(C)CC2C)cc1OC` (centres undefined), which Potency is on record?
A: inconclusive [inhibitor, partial curve]

Q: Which Potency does the source give for `O=C(CC1Nc2ccccc2NC1=O)Nc1ccccc1NC(=O)CC1Nc2ccccc2NC1=O` (centres undefined) here?
A: inconclusive [inhibitor, partial curve]

Q: For `Cc1ccccc1CN(C)CCS(=O)(=O)c1cc(Cl)ccc1Cl`, which Potency is on record?
A: inconclusive [inhibitor, partial curve]

Q: For `CCOC(=O)CCCCC(=O)c1[nH]c(=O)[nH]c1CSc1nc2ccccc2[nH]1`, which Potency is on record?
A: active: 3.16 µM

Q: `CCO[C@H]1c2c(ccc3ccc(=O)oc23)OC(C)(C)[C@@H]1O` was tested. Which Potency did it give?
A: inactive

Q: `CCOc1ccccc1NC(=O)CCCNC(=O)c1ccc(Cl)cc1` was tested. Which Potency did it give?
A: inactive

Q: Which Potency does the source give for `CC(C)C1=CC2=CCC3C(C)(C(=O)O)CCCC3(C)C2CC1` (centres undefined) (tested in a mixture with another compound) here?
A: inconclusive [inhibitor, partial curve]

Q: With `C/C=C/c1cc(CN2CCN(c3ccc(OC)cc3)CC2)c(O)c(OC)c1` as the compound, how does the Potency read?
A: inconclusive [inhibitor, partial curve]

Q: For `Cc1nc(P(=O)(c2ccccc2)c2ccccc2)c(N2CCOCC2)o1`, which Potency is on record?
A: inactive

Q: `Cc1ccc(NC(=O)c2ccc(-n3cccn3)c([N+](=O)[O-])c2)cc1` was tested. Which Potency did it give?
A: inconclusive [inhibitor, partial curve]

Q: `O=C1C(=O)N(CCCN2CCOCC2)C(c2ccc(F)cc2)/C1=C(/O)c1ccccc1` (centres undefined) was tested. Which Potency did it give?
A: inconclusive [inhibitor, partial curve]
